Data reported in the supplement of paper PMC7826260.
The list shows a part of the results. Cleavage of a single-stranded DNA pool by Rep nickase domains was read by sequencing (3 µM enzyme, 1 h, 37 °C); shown is the middle of each 90-letter strand. A value is the log2 ratio of uncut reads to the pool without enzyme; uncut sequences lie near 0, cut ones below; no hit call is given. The scaling is to total reads; uncut strands gain when others are lost, and binding without cutting may add a little.

Legend:
Assay in all cases: uncleaved DNA left, log2 of reads against the no-enzyme library (log2 ratio); higher = less cleavage (more negative = more Rep cleavage of the k-mer); sequences stand for … in CTCGTCCG…ACCGGAGA
[1] = test system: T1, Rep nickase domain of Muscovy duck circovirus
T1 sequence (protein, residues 1-111, tag omitted): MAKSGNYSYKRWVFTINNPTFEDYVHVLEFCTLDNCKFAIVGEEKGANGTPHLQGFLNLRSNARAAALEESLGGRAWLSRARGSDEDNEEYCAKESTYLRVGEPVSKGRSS
Experimental: (§1)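 A pool of 90-nt single-stranded DNAs with seven random bases just before the constant AC of the nick site (name = the seven bases) was cut by 3 µM recombinant His6-SUMO-tagged Rep nickase domain (300 nM DNA, 50 mM HEPES pH 8.0, 50 mM NaCl, 1 mM MnCl2, 1 h, 37 °C, three replicates). Uncut DNA was amplified and sequenced.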

[2] = test system: T2, Rep nickase domain of banana bunchy top virus
T2 sequence (protein, residues 1-94, tag omitted): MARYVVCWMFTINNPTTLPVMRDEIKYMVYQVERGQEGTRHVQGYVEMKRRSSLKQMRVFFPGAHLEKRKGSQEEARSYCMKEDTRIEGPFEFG
Experimental: as §1

[3] = test system: T3, Rep nickase domain of cabbage leaf curl virus
T3 sequence (protein, residues 1-116, tag omitted): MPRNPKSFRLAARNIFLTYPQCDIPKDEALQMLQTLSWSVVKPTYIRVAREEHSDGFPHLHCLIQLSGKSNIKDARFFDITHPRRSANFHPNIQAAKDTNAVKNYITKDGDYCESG
Experimental: as §1

[4] = test system: T4, Rep nickase domain of chickpea chlorotic dwarf virus
T4 sequence (protein, residues 1-124, tag omitted): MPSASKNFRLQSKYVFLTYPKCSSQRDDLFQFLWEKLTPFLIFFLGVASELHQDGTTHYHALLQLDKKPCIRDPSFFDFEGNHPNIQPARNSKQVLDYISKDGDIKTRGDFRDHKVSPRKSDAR
Experimental: as §1

[5] = test system: T5, Rep nickase domain of faba bean necrotic yellows virus
T5 sequence (protein, residues 1-98, tag omitted): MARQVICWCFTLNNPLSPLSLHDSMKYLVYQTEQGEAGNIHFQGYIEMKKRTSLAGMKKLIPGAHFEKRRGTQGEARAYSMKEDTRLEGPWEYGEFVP
Experimental: as §1

[6] = test system: T6, Rep nickase domain of maize striate mosaic virus
T6 sequence (protein, residues 1-117, tag omitted): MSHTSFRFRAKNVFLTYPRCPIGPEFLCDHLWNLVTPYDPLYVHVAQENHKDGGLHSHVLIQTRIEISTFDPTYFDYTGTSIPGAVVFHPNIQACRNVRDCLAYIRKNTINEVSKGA
Experimental: as §1

[7] = test system: T7, Rep nickase domain of porcine circovirus 2
T7 sequence (protein, residues 2-116, tag omitted): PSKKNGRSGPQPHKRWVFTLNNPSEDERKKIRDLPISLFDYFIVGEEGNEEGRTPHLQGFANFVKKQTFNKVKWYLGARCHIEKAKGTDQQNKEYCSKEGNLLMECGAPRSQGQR
Experimental: as §1

[8] = test system: T8, Rep nickase domain of tomato yellow leaf curl virus
T8 sequence (protein, residues 1-136, tag omitted): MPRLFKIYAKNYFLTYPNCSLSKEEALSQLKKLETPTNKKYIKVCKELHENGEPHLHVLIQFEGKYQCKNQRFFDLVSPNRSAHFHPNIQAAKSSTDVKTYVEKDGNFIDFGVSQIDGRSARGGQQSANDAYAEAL
Experimental: as §1

[9] = test system: T9, Rep nickase domain of wheat dwarf virus
T9 sequence (protein, residues 1-137, tag omitted): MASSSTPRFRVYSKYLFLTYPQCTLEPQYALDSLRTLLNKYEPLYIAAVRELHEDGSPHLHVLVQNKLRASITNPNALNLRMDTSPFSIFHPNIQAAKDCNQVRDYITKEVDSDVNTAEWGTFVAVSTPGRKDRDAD
Experimental: as §1

Sequence | uncleaved DNA left (log2) [1] | uncleaved DNA left (log2) [2] | uncleaved DNA left (log2) [3] | uncleaved DNA left (log2) [4] | uncleaved DNA left (log2) [5] | uncleaved DNA left (log2) [6] | uncleaved DNA left (log2) [7] | uncleaved DNA left (log2) [8] | uncleaved DNA left (log2) [9]
ACACAGC | -0.0032 | -0.0435 | -0.438 | -0.454 | -0.0549 | -0.871 | 0.151 | 0.076 | 0.025
TAATGTC | 0.00535 | -0.177 | -4.07 | -3.35 | -0.0467 | -3.42 | -0.503 | -0.222 | -3.54
ATGCACG | -0.0524 | -0.1 | -0.862 | -0.367 | -0.0722 | -1.27 | 0.0528 | -0.11 | -0.209
CTCGACA | -0.0646 | -0.168 | -0.0316 | -1.04 | -0.157 | -0.103 | -0.175 | -0.0273 | -0.0592
GCAATCA | 0.000759 | 0.106 | 0.101 | -0.259 | -0.00666 | 0.226 | 0.0752 | 0.126 | 0.0803
ATCTTCC | -0.376 | -0.153 | -0.202 | -0.314 | -0.174 | -0.457 | -1.64 | -0.118 | -0.141
CGTAGTC | 0.0939 | -0.0989 | 0.189 | 0.26 | 0.0575 | -0.277 | 0.0854 | 0.0467 | 0.0469
GCGTCTG | 0.0686 | 0.195 | -0.00777 | 0.661 | 0.128 | 1.76 | 0.218 | -0.0856 | 0.0271
GGGGCAC | -0.0619 | 0.0818 | 0.78 | 2.04 | -0.0732 | 2.24 | 0.202 | -0.0358 | 0.0917
ACCCGGG | 0.129 | 0.0216 | 0.255 | 0.847 | 0.0143 | 0.0527 | 0.289 | 0.164 | 0.0334
CTGACCG | -0.122 | 0.0369 | 0.0599 | 0.887 | -0.0673 | 0.825 | 0.0379 | -0.0557 | -0.0283
ATGCAAG | 0.0939 | 0.0537 | -0.681 | -0.251 | 0.0818 | -1.11 | 0.0901 | 0.0899 | 0.0216
GGCTAAA | 0.0443 | 0.181 | 0.535 | 1.28 | 0.0872 | 1.76 | 0.181 | 0.118 | 0.252
CCTAGCG | -0.0284 | 0.00453 | -0.829 | 0.281 | 0.0239 | -0.689 | 0.106 | 0.0925 | -0.131
AGTAACC | 0.0263 | 0.103 | -0.0539 | -0.124 | 0.0152 | 0.292 | -0.56 | 0.0788 | 0.0309
ATTACCG | -0.0848 | 0.0502 | -0.851 | -1.57 | 0.0384 | -1 | 0.0043 | -0.00691 | -0.00456
TTAGTAA | 0.122 | 0.0792 | 0.174 | -0.18 | -0.0767 | 0.0993 | 0.0532 | -0.0917 | -0.0582
AGCGACA | -0.0995 | 0.103 | 0.0649 | 0.696 | -0.00306 | 1.41 | 0.003 | -0.078 | 0.128
CGGATTC | -0.0983 | -0.0643 | 0.213 | 0.414 | 0.0483 | -0.0247 | -0.00351 | 0.0422 | 0.0778
TTAGGTT | 0.116 | 0.00734 | 0.343 | 0.501 | -0.0092 | 1.72 | -0.0095 | -0.00302 | 0.0218

Sequence | uncleaved DNA left (log2) [1] | uncleaved DNA left (log2) [2] | uncleaved DNA left (log2) [3] | uncleaved DNA left (log2) [4] | uncleaved DNA left (log2) [5] | uncleaved DNA left (log2) [6] | uncleaved DNA left (log2) [7] | uncleaved DNA left (log2) [8] | uncleaved DNA left (log2) [9]
ACTCATG | -0.0148 | 0.0656 | -0.616 | -0.541 | 0.0162 | -1.26 | 0.191 | 0.0475 | -0.179
CGTCCCA | -0.0139 | -0.0209 | 0.138 | -0.235 | -0.0103 | -0.0255 | -0.261 | -0.0669 | 0.158
CGGCCTA | 0.0401 | 0.0318 | 0.000849 | 0.00997 | -0.0927 | 0.27 | -0.0754 | 0.00404 | 0.0309
GTAAGAA | 0.0304 | 0.0506 | 0.2 | 0.554 | 0.109 | 1.22 | 0.153 | -0.0152 | 0.0956
TCGACCC | 0.0207 | 0.0217 | 0.247 | 0.35 | 0.0389 | 0.432 | -0.291 | 0.00305 | -0.0968
GGGAAAA | 0.0517 | 0.153 | 0.957 | 2.15 | -0.0103 | 2.23 | 0.225 | -0.0348 | 0.236
CTACCTG | -0.0753 | -0.0381 | -0.213 | -1.17 | -0.0687 | 0.0399 | -0.263 | -0.0997 | -0.0254
GGCTTTG | 0.0801 | 0.105 | 0.199 | 0.647 | 0.0943 | 1.37 | 0.153 | 0.0239 | 0.0476
TTATGCA | -0.254 | -0.0235 | -0.526 | -1.13 | -0.223 | -1.38 | -0.2 | 0.0275 | -0.131
TCGAAGG | 0.0241 | -0.0239 | 0.299 | 0.973 | 0.118 | 1.15 | 0.00216 | -0.133 | 0.0601
CCATCCC | -0.0205 | -0.117 | -0.193 | -0.355 | -0.0592 | -0.469 | -0.0563 | -0.272 | -0.174
ACGCTGT | 0.132 | -0.0146 | -0.116 | 0.0341 | -0.0113 | -0.0503 | 0.0557 | -0.158 | -0.0305
TTAAGGA | 0.0541 | 0.0321 | 0.0775 | 0.18 | 0.0549 | -0.148 | 0.14 | 0.0148 | 0.0665
TTAATTG | 0.0564 | -0.0339 | -0.498 | -0.713 | 0.0632 | -1.12 | 0.112 | -0.000283 | -0.0744
CACGCTT | 0.0401 | -0.00615 | -0.526 | -2.38 | -0.0559 | -0.216 | -0.947 | -0.0203 | -0.0944
GTGATCC | 0.091 | 0.0748 | 0.394 | 0.929 | 0.142 | 1.92 | 0.22 | 0.138 | 0.269
TAAACCT | -0.265 | -0.119 | -3.85 | -3.32 | -0.0933 | -2.58 | -1.86 | -0.0451 | -3.57
TCGAACG | 0.163 | 0.00901 | -0.681 | -0.602 | -0.096 | -1.16 | 0.254 | -0.0241 | -0.0369
CGTCTTG | -0.213 | -0.143 | -0.287 | -0.0785 | -0.101 | 0.271 | -0.139 | -0.107 | -0.101
AGTAACT | 0.136 | 0.0326 | -0.0967 | -1.54 | -0.13 | 0.632 | -3.28 | 0.126 | 0.184

Sequence | uncleaved DNA left (log2) [1] | uncleaved DNA left (log2) [2] | uncleaved DNA left (log2) [3] | uncleaved DNA left (log2) [4] | uncleaved DNA left (log2) [5] | uncleaved DNA left (log2) [6] | uncleaved DNA left (log2) [7] | uncleaved DNA left (log2) [8] | uncleaved DNA left (log2) [9]
GTGCCCT | -0.0409 | 0.0833 | 0.234 | 0.637 | -0.284 | 1.6 | -0.0515 | 0.0438 | 0.0447
AAACATC | 0.000906 | 0.0186 | -0.134 | -0.803 | 0.0157 | -0.604 | 0.155 | 0.0775 | 0.11
CCGGAGT | -0.0337 | -0.126 | -0.0202 | 0.13 | -0.0115 | -0.0894 | -0.193 | -0.222 | -0.158
TCTAGAT | -0.0496 | -0.0312 | 0.21 | 0.519 | 0.0439 | 0.963 | 0.0658 | -0.213 | -0.166
ACTGGTA | -0.0423 | -0.0554 | -0.102 | 0.294 | -0.0972 | 0.679 | 0.046 | 0.0542 | 0.00548
GGTCCCC | -0.0252 | -0.0223 | 0.378 | 0.886 | -0.0697 | 1.47 | -0.215 | 0.0965 | 0.104
TAACATC | 0.0727 | 0.0944 | -3.03 | -2.64 | 0.138 | -1.14 | 0.0609 | 0.14 | -0.582
GGTGACA | 0.0207 | 0.0159 | 0.866 | 2.03 | -0.0462 | 2.29 | 0.151 | 0.031 | 0.146
TGCGAAA | 0.148 | 0.0452 | -0.206 | -0.281 | -0.0255 | -0.85 | -0.000571 | -0.112 | 0.15
GTGCCCA | -0.0086 | 0.163 | 0.257 | 0.949 | 0.0312 | 1.68 | -0.0116 | 0.0703 | 0.0917
TTGGCGT | 0.0104 | -0.13 | -1.07 | -0.305 | -0.0615 | -0.858 | -0.0252 | -0.134 | -0.195
GTTAGGA | 0.296 | 0.157 | 0.38 | 0.949 | 0.197 | 1.02 | 0.355 | 0.173 | 0.269
GGTCTCG | 0.0507 | 0.138 | -0.131 | 0.269 | 0.0874 | 0.308 | 0.0148 | 0.108 | 0.0506
GCGACAT | 0.0172 | 0.0547 | 0.802 | 2 | 0.0263 | 2.23 | 0.146 | 0.102 | 0.181
AAAATCA | 0.129 | 0.169 | 0.126 | -1.81 | 0.139 | -0.137 | 0.101 | 0.137 | 0.19
TTGAATA | -0.104 | -0.0184 | 0.127 | -0.244 | 0.0262 | 0.603 | -0.0669 | 0.0174 | 0.052
GAGCTTG | 0.14 | 0.162 | 0.198 | 0.854 | 0.0548 | 1.11 | 0.166 | 0.0565 | 0.194
CACGACA | -0.0663 | 0.117 | -0.0579 | -1.82 | -0.0416 | 0.0126 | -0.611 | 0.0427 | -0.218
TTGGGGC | -0.0455 | -0.0513 | 0.594 | 1.3 | -0.0622 | 1.61 | 0.0998 | -0.116 | -0.1
AATACAG | 0.0439 | 0.0119 | -0.708 | -1.07 | 0.0148 | -1.07 | 0.19 | 0.0674 | -0.0647
